Data on 32 molecules can be found in the supplement of paper PMC12462457.

The assay relates to OVCAR8. Nature of the assay: cell count relative to DMSO vehicle (fold change); OVCAR8 is a high-grade serous ovarian cancer line and CX-5461 an RNA polymerase I inhibitor; higher = more surviving senescent cells (less killing). The settings on record: senescence inducer: CX-5461 3 µM 48 h, then 6 d recovery (CX senescent), exposure time 24 h.

SMILES strings stand for the structures. ± gives the standard deviation of the averaged measurements. Some of the results follow.

`COc1ccc(S(=O)(=O)Nc2cc(-c3csc(C#N)c3)ccc2C)cc1` returned a cell count (compound dose 1 µM) of 1.25 ± 0.15 and a cell count (compound dose 5 µM) of 1.19 ± 0.041.
For the molecule `CCCc1ccc(OCC(=O)N(Cc2nc(-c3cccnc3)no2)C(C)C)cc1`, the cell count (compound dose 1 µM) was 1.12 ± 0.14 and the cell count (compound dose 5 µM) amounted to 1.09 ± 0.16.
On the same counts, the results for `CC#CCn1c(N2CCC[C@@H](N)C2)nc2c1c(=O)n(Cc1nc(C)c3ccccc3n1)c(=O)n2C` [Linagliptin] are 1.06 ± 0.055 and 1.05 ± 0.17.
For `C[C@@H]1CC[C@@]2(OC1)O[C@H]1C[C@H]3[C@@H]4CC=C5C[C@@H](O[C@@H]6O[C@H](CO)[C@@H](O[C@@H]7O[C@@H](C)[C@H](O[C@@H]8O[C@@H](C)[C@H](O)[C@@H](O)[C@H]8O)[C@@H](O)[C@H]7O)[C@H](O)[C@H]6O[C@@H]6O[C@@H](C)[C@H](O)[C@@H](O)[C@H]6O)CC[C@]5(C)[C@H]4CC[C@]3(C)[C@@]1(O)[C@@H]2C` [Paris saponin VII], the cell count is, setting by setting: (compound dose 1 µM) 0.355 ± 0.093; (compound dose 5 µM) 0.0185 ± 0.005.
On the same counts, the results for `CC(C)(CO)[C@@H](O)C(=O)NCCC(=O)O` [D-Pantothenic acid (sodium)] are 1.21 ± 0.25 and 1.17 ± 0.16.
As for `CC(=O)c1c(Nc2ccc(Cl)cc2)[nH]c2c(Br)ccc(Cl)c2c1=O`, the cell count is 1.18 ± 0.38 (compound dose 1 µM) and 1.37 ± 0.63 (compound dose 5 µM).
For `CCn1c2ccccc2c2cc(CNC)ccc21`, in that order: 1.14 ± 0.14 and 1.063 ± 0.0028.
For `CCCOC(=O)c1ccc(O)cc1` [Propylparaben], in that order: 1.15 ± 0.024 and 1.1 ± 0.084.
For `COc1cc2ccc(=O)oc2c(O)c1O` [Fraxetin], in that order: 1.25 ± 0.29 and 1.1 ± 0.28.
Regarding `O=C(NCCN1CCOCC1)Nc1nc2ccc(Sc3nnc4ccc(-c5ccc(F)cc5)nn34)cc2s1`, the cell count was found to be 1.13 ± 0.17 (compound dose 1 µM) and 1.1 ± 0.25 (compound dose 5 µM).
For `CCOC(=O)C1=C(C)NC(=S)NC1c1cccc(O)c1` (centres undefined) [Monastrol], in that order: 1.05 ± 0.04 and 1.14 ± 0.03.
With `Cc1ccc(C(=O)Nc2sc(Nc3ccccc3)nc2C(N)=O)cc1`, the cell count came out at 1.15 ± 0.021 (compound dose 1 µM) and 1.08 ± 0.011 (compound dose 5 µM).
Regarding `O=C(/C=C/c1ccc(O)c(O)c1)O[C@H](Cc1ccc(O)c(O)c1)C(=O)O` [Rosmarinic acid], the cell count runs as follows: (compound dose 1 µM) 1.11 ± 0.4; (compound dose 5 µM) 1.07 ± 0.36.
For `O=C(O)CC(C(=O)O)n1c(O)c(C2=c3cc(Br)ccc3=NC2=O)sc1=S` (centres undefined), in that order: 1.05 ± 0.013 and 1.07 ± 0.12.
For `C=C[C@](C)(O)CC[C@@H]1[C@@]2(C)CCCC(C)(C)[C@@H]2CC[C@@]1(C)O` [Sclareol], in that order: 1.1 ± 0.14 and 1.05 ± 0.039.
Take `COc1cc(CNC(=O)CCCC/C=C/C(C)C)ccc1O`: the cell count is 0.593 ± 0.03 (compound dose 1 µM) and 0.521 ± 0.063 (compound dose 5 µM).
Take `C[C@]12CC[C@@H]3c4ccc(O)cc4C[C@@H](CCCCCCCCC[S+]([O-])CCCC(F)(F)C(F)(F)F)[C@H]3[C@@H]1CC[C@@H]2O` (some centres undefined) [Fulvestrant]: the cell count runs as follows: (compound dose 1 µM) 1.21 ± 0.14; (compound dose 5 µM) 1.22 ± 0.22.
For `COc1ccc(-c2cc(=O)c3c(O)c(OC)c(OC)cc3o2)cc1` [Salvigenin], in that order: 1.02 ± 0.076 and 1.04 ± 0.22.
On to `NC1(Cc2ccc(Cl)cc2)CCN(c2ncnc3[nH]ccc23)CC1`, for which the cell count by setting is: (compound dose 1 µM) 0.912 ± 0.2; (compound dose 5 µM) 0.5735 ± 0.00071.
For `CC(C)c1c2cc(-c3ccnc(NC4CCC(NC5CCOCC5)CC4)n3)ccc2nn1C` (centres undefined), the cell count by setting is: (compound dose 1 µM) 0.635 ± 0.059; (compound dose 5 µM) 0.57 ± 0.067.
Take `CCOC(=O)C1=C(N)Oc2ccc(Br)cc2C1C(C#N)C(=O)OCC` (centres undefined): the cell count runs as follows: (compound dose 1 µM) 1.16 ± 0.26; (compound dose 5 µM) 1.05 ± 0.15.
On the same counts, the results for `O=[N+]([O-])c1ccc(SCCCCCCO)c2nonc12` are 1.09 ± 0.13 and 0.567 ± 0.16.
Regarding `COc1ccc(Cl)cc1NC(=O)Nc1cc(C)nc2ccccc12`, the cell count came out at 1.11 ± 0.23 (compound dose 1 µM) and 1.18 ± 0.11 (compound dose 5 µM).
For `COc1ccc(/C=C/c2cc(O)cc(O[C@@H]3O[C@H](CO)[C@@H](O)[C@H](O)[C@H]3O)c2)cc1` [Desoxyrhaponticin], in that order: 1.09 ± 0.22 and 1.14 ± 0.23.
For `O=C(/C=C/c1ccc(O)c(O)c1)O[C@@H]1C[C@@](O)(C(=O)O)C[C@@H](O)[C@@H]1O` [Neochlorogenic acid], in that order: 0.877 ± 0.095 and 0.91 ± 0.096.
On the same counts, the results for `C=C1C(=O)O[C@@H]2C[C@@]3(C)CCCC(=C)[C@@H]3C[C@H]12` [Isoalantolactone] are 1.28 ± 0.35 and 0.669 ± 0.048.
Turning to `CC(C)[C@@H](C)[C@@H](O)[C@H](O)[C@@H](C)[C@H]1CC[C@H]2[C@@H]3COC(=O)[C@H]4C[C@H](O)[C@H](O)C[C@]4(C)[C@H]3CC[C@]12C` [Epibrassinolide], the cell count (compound dose 1 µM) turned out to be 1.22 ± 0.12 and the cell count (compound dose 5 µM) was 1.13 ± 0.1.
On to `C[C@]12C=CC(=O)N[C@@H]1CC[C@@H]1[C@@H]2CC[C@]2(C)[C@@H](C(=O)Nc3cc(C(F)(F)F)ccc3C(F)(F)F)CC[C@@H]12` [Dutasteride], for which the cell count worked out at 1.03 ± 0.071 (compound dose 1 µM) and 1.07 ± 0.048 (compound dose 5 µM).
For `O=C(Nc1ccccc1-c1cn2c(CN3CC[C@@H](O)C3)csc2n1)c1ccc2ccccc2c1`, in that order: 1.15 ± 0.19 and 1.25 ± 0.32.
On the same counts, the results for `COc1ccc(-c2nc(N3CCOCC3)c3sc(CN(C)c4ncc(C(=O)NO)cn4)cc3n2)cn1` are 0.893 ± 0.58 and 0.71 ± 0.53.
For the molecule `Cc1cnc(Nc2ccc(OCCN3CCCC3)cc2)nc1Nc1cccc(S(=O)(=O)NC(C)(C)C)c1`, the cell count is, setting by setting: (compound dose 1 µM) 1 ± 0.1; (compound dose 5 µM) 0.733 ± 0.43.
Turning to `c1ccc2c(CCNc3ccc(Nc4ccncc4)cc3)c[nH]c2c1` [Serdemetan], the cell count worked out at 0.954 ± 0.071 (compound dose 1 µM) and 0.798 ± 0.088 (compound dose 5 µM).
